# Data published in the supplement of paper PMC3334620.
# Whole data set: some 33,000 sequences, median “E-score (-0.5 to 0.5)” near -0.04, cut for the highest 2% near 0.36. This is one part of the list.
# Biological target: T1, Hmlalpha2 (UniProt P0CY09)
# T1 sequence: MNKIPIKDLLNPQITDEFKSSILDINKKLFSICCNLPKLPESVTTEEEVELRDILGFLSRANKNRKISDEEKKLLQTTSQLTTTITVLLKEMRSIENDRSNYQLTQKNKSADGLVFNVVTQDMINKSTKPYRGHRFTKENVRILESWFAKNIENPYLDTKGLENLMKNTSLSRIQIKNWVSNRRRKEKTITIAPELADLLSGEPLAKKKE
# Assay: PBM E-score (8-mer binding enrichment) (E-score (-0.5 to 0.5)); higher = stronger / more preferred TF binding; most listed sequences are background and not binding sites
# Settings: protein concentration: 200 nM; construct: GST-full length
# How it was run: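 Using PURExpress in vitro transcription/translation, GST-tagged yeast transcription factors were made in full-length or DNA-binding-domain form. These were applied at about 100-200 nM to double-stranded universal all-10-mer Agilent arrays, and bound protein was detected with fluorescent anti-GST. Scans were normalised with masliner before the Universal PBM Analysis Suite assigned E-scores to ungapped eight-base words pooled with their reverse complements.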
row,Sequence,PBM E-score
1,AGTAGACA,0.093
2,CATTGCCG,0.0323
3,CCCGTCAA,-0.146
4,AACCTAAA,0.174
5,AGATGATA,0.127
6,AGAGTCAG,-0.183
7,ATTGTGTA,0.42
8,AGCAGGAG,-0.0702
9,GTGTCGAA,0.229
10,CCGACTTA,-0.058
11,AACAAAGG,0.00375
12,CCACCACA,0.0106
13,CCTTGACA,0.182
14,CTTTTTGA,-0.0352
15,ACATATCT,0.305
16,AATGTGTG,0.0802
17,CGCTGTTA,0.12
18,ACTTAGCC,0.0449
19,AACCCTGG,-0.204
20,AGTGGGTG,-0.0299
21,GCGTCGAC,0.0467
22,CATCCATC,-0.169
23,GTTCTTGA,0.101
24,CCGAGTGC,-0.288
25,CCCTTACA,0.205

row,Sequence,PBM E-score
1,CATGTTCA,0.338
2,AATCCTGA,-0.079
3,GAGCCCTA,-0.285
4,ATCGTTCG,-0.0141
5,ATTAGTAA,0.206
6,CGTATACA,0.377
7,CACGAATC,0.179
8,ATTGGGAA,-0.195
9,CTATTCCC,-0.203
10,TGCTTTAA,0.153
11,GCGGCCCA,-0.279
12,GACGTTCA,-0.0369
13,CTACATTC,0.0322
14,GCCCGTCA,-0.298
15,GGAAAACC,-0.12
16,CTGGAAAC,0.0892
17,GCTACACA,0.323
18,AACGACTC,-0.111
19,CAGCGCGC,-0.142
20,ACCGGCAG,-0.37
21,CACTTCTG,-0.181
22,CATTTTTA,0.081
23,GCTACGAC,-0.00978
24,CACTAATC,-0.0861
25,AGCTGCTA,-0.0148

row,Sequence,PBM E-score
1,AATGAATC,-0.0655
2,CATGAGTC,0.175
3,TAGAGCCA,-0.119
4,AACGAATC,0.11
5,TACATGCA,0.438
6,ACTTTGCA,0.177
7,ACCGATCA,0.0428
8,CCAGCCTA,-0.265
9,CCGTGTTC,0.328
10,TACTCAAA,0.087
11,ATTGGTAC,-0.0832
12,ACCCAACT,-0.136
13,CAAAAACA,0.203
14,AATGCTCG,0.0169
15,AACCCCGC,-0.271
16,CAATAAAC,0.0358
17,AATTGTTA,0.19
18,CCCTTCCA,-0.225
19,ACGATATC,0.0761
20,GATTGAAC,0.181
21,ACATATCC,0.211
22,TAGATGCA,-0.0743
23,GAGCCTCC,-0.163
24,ACTGTTCC,-0.221
25,ACGAGAAA,0.133

row,Sequence,PBM E-score
1,AAGTCCCG,-0.154
2,AAATTGTC,0.0749
3,AGCTTTGC,-0.176
4,AAGTTAAT,0.187
5,ACGTTACA,0.347
6,AACAGCGG,-0.234
7,GGTGGAAC,-0.0488
8,CGGGCTAG,-0.291
9,TCTCGAAA,-0.0582
10,AGTCGCGG,-0.266
11,CACTAGAG,-0.0668
12,TGCGGAAA,-0.146
13,ACGGACGT,-0.00462
14,GATGAGCA,0.131
15,CAATTGCA,-0.0992
16,CACAAAGC,0.129
17,AATAGAAA,0.00298
18,GTCCGCAC,-0.0582
19,ATGTGCGC,0.127
20,CGGCTTCA,-0.0707
21,CAGTGGAG,-0.232
22,CCCGACCA,-0.239
23,CGCTCGGC,-0.27
24,AGGCGTAG,-0.168
25,ACAAGCAG,0.121

row,Sequence,PBM E-score
1,CACTTGCG,-0.0934
2,CCTCTCAA,-0.144
3,CAGTGAGG,-0.244
4,GGTTCGAA,-0.0183
5,CCACCTTC,-0.199
6,CCCCGCAA,0.00265
7,CGGATTTC,-0.196
8,CAGGAGTA,-0.0204
9,AGAGTTTC,-0.0973
10,GAACCCTA,0.0243
11,TCAGGGGA,-0.182
12,AAATCTCG,0.0861
13,AGTCCCAT,-0.194
14,TCTGTCCA,-0.0836
15,AAGCCAGC,-0.0424
16,CTTCTATC,-0.239
17,CCGGCCTA,-0.0401
18,CGTGGCTC,-0.209
19,ATGTGAGA,-0.0137
20,ATAGTCGC,-0.0918
21,CAACCCTA,-0.0776
22,ATCATTAC,0.329
23,ATACTGTG,0.0506
24,ATTACTCG,0.348
25,CCTCGCCC,-0.178

row,Sequence,PBM E-score
1,ACCACTCA,0.00925
2,CCGCATTC,-0.0132
3,CGCGGCCA,-0.0801
4,CATCCTCC,-0.113
5,GTAGCTTA,0.128
6,AATGGCTG,-0.118
7,AGAACTTG,0.0804
8,ACAAGAAC,0.311
9,CCGCCATC,-0.318
10,TATCTACA,0.371
11,GAGGTAAC,0.0376
12,ACGGGGCT,-0.178
13,CTAATCAG,-0.22
14,GTTGATTA,0.315
15,CAGCACAA,0.175
16,AAGCGGGA,-0.0647
17,ACAGCGGA,-0.148
18,CCAACTGC,-0.241
19,CACCGAGA,-0.219
20,AACCGCAC,0.0925
21,CTCTACAA,0.277
22,GGGTCAGA,-0.269
23,AGATACAA,0.276
24,CATCATTA,0.231
25,CACAATGG,0.0776

row,Sequence,PBM E-score
1,TTATATAA,0.285
2,AGCATATA,0.042
3,AGCGGCGG,-0.0376
4,GAGCATGC,-0.0305
5,CGCCCCAG,-0.22
6,CCTTGATC,-0.0105
7,ACATGAAG,0.338
8,ACCAGAAT,0.0511
9,ATTGCTTA,0.0327
10,ATAACGGC,-0.0332
11,CTGTCGCA,-0.059
12,ACACATCG,0.248
13,CATAAACG,0.104
14,GCCCGCCA,-0.253
15,CCACAGCG,-0.0107
16,ACCCGCAT,-0.00911
17,ATTTTGTG,0.161
18,GGCGTCAA,-0.0619
19,ATTTGCAC,0.051
20,CAGCTTAG,-0.0545
21,ATGAGGGG,-0.0697
22,CGTACATC,0.109
